Measured values as given in PubChem BioAssay AID1240 (Sanford-Burnham Center for Chemical Genomics, 2008).
The whole screen tested about 50,000 compounds, of which about 800 (1.6%) showed an effect of 50% or more. Some of the results follow.

The compounds below were run against Bcl-2-like protein 10 (Homo sapiens) (UniProt Q9HD36) (assay: TR3 peptide-Bcl-B binding displacers, biochemical primary FP assay, phenotype converters (AID 1240;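 note: 0% = Bcl-B with tracer peptide and DMSO and 100% = tracer peptide lacking Bcl-B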)). Details: GST-Bcl-B / FITC-TR3 peptide fluorescence polarization; stronger effect = higher value; compound at 3.75 mg/L.
Chain of UniProt Q9HD36 (Q9HD36 whole entry, looked up): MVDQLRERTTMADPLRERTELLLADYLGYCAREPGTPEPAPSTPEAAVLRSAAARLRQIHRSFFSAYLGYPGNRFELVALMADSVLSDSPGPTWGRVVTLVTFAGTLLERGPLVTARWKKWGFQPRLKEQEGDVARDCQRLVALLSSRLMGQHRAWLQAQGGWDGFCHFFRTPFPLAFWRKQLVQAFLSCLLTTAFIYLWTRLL

Row | Structure (SMILES) | displacement [%]
1 | CCOc1ccc2c(c1)NC(C)(C)c1ssc(=Nc3ccccc3O)c1-2 | 5
2 | COc1cccc(OC)c1C(=O)NCc1ccccc1Cl | 3.2
3 | Cc1c(C(=O)NCc2ccc3c(c2)OCO3)cccc1[N+](=O)[O-] | 7.1
4 | COC(=O)c1c(C)oc2ccc(OCc3ccccc3F)cc12 | 7.1
5 | O=C(CC(Nc1ccc([N+](=O)[O-])cc1)c1ccc(Br)cc1)c1ccc(Cl)cc1 (stereo unspecified) | 2.7
6 | COc1ccccc1OCC(=O)N/N=C/c1ccccc1Sc1ccccc1 | 4.4
7 | Cc1ccc(CN2CCN(N=Cc3ccc(Br)s3)CC2)c(C)c1 | -6.1
8 | O=C(Nc1cccc(-c2nc3ncccc3o2)c1)c1ccc(Br)o1 | -2.9
9 | CC(C)(C)c1ccc(/C=C/C(=O)n2cccn2)cc1 | 14.3
10 | CCOC(=O)c1ccccc1NC(=O)COc1ccc(C)cc1C | -8.7
11 | CCOC(=O)N1CCN(C(=O)/C(=C/c2ccc(OC)cc2)NC(=O)c2ccccc2)CC1 | -5.3
12 | CCc1ccc(/C=N/NC(=O)c2c[nH]c3ccccc23)s1 | 0.5
13 | COc1ccccc1OCCNC(=O)c1ccc(OC)c([N+](=O)[O-])c1 | -5.8
14 | COc1ccc(N(CC(=O)Nc2ccc(Br)cc2)S(=O)(=O)c2ccc(C)cc2)c(OC)c1 | 4.7
15 | O=C1S/C(=C\c2cccc(Cl)c2)C(=O)N1Cc1ccccc1 | -2.8
16 | O=C(CSc1ccc(Cl)cc1Cl)Nc1cccc([N+](=O)[O-])c1 | 10.6
17 | C[n+]1cccc(C(=O)NCCOC(=O)Cc2ccccc2)c1 | 11.1
18 | O=C(c1cc(F)c(F)cc1Cl)N1CCN(c2ccc([N+](=O)[O-])c(N3CCCC3)c2)CC1 | 10.6
19 | COC(=O)c1ccccc1NC(=O)CN(c1cc(OC)ccc1OC)S(C)(=O)=O | -1.5
20 | CCc1cccc(C)c1NC(=O)CSc1nc2c(c(=O)n(C)c(=O)n2C)n1C | 9.6
21 | O=c1ccc2ccc(OCc3cccc(Cl)c3)cc2o1 | 1.2
22 | O=C(c1c(Cl)cccc1Cl)N1CCN(c2cccc(Cl)c2)CC1 | 2.3
23 | CCOC(=O)C(=CNc1ccc(Cl)cc1C)C(=O)OCC | -9.1

Row | Structure (SMILES) | displacement [%]
24 | Fc1ccccc1OCCn1ccnc1 | 3.9
25 | Cc1cc2nc(-c3ccc(NC(=O)COc4ccccc4[N+](=O)[O-])cc3)oc2cc1C | -0.7
26 | COCCNC(=O)c1cc(C(=O)OC)cc([N+](=O)[O-])c1 | -2.8
27 | O=C(O)CCN1C(=O)/C(=C\c2ccc3c(c2)OCO3)SC1=S | -2.7
28 | CC(=O)Nc1ccc(-c2csc(N)n2)cc1 | 2.8
29 | COc1ccc(N(CC(=O)Nc2ccc(Cc3ccncc3)cc2)S(=O)(=O)c2ccccc2)cc1 | -11.2
30 | CN=C(NOCc1ccccc1)c1nonc1N | 10.6
31 | CC/C=N/OC(=O)c1c(F)c(F)c(F)c(F)c1F | -3.5
32 | COc1ccc(S(=O)(=O)Nc2ccc(NS(=O)(=O)c3ccc(OC)cc3)c3ccccc23)cc1 | 11.4
33 | COc1cc(/C=c2\sc3nc4ccccc4n3c2=O)cc(I)c1OCCOc1cccc(C)c1 | 10.9
34 | O=C(Nc1ccc(Cl)cc1)N1CCN(c2ccccc2Cl)CC1 | 19.1
35 | COC(=O)c1cccc(NC(=O)COc2ccccc2C(C)(C)C)c1 | 5.3
36 | COCCOC(=O)C1=C(C)N=c2s/c(=C\c3ccccc3Cl)c(=O)n2C1c1ccc(OC)cc1 (stereo unspecified) | 4.8
37 | COCCN1C(=O)/C(=C\c2ccc(Cl)cc2Cl)C(C(=O)OC)=C1C | 7.1
38 | CCCCOC(=O)CSC1=C(C#N)C(c2cccc3ccccc23)CC(=O)N1 (stereo unspecified) | -7.5
39 | CCOP(=O)(OCC)C(Nc1ccc([N+](=O)[O-])cc1)c1c[nH]c2ccccc12 (stereo unspecified) | 4.2
40 | Cc1ccc(C)c(NC(=O)CSc2nc3ccccc3o2)c1 | -4.7
41 | O=C1c2ccccc2C(=O)c2c(NC3CCCCC3)cccc21 | -2.9
42 | COC(=O)c1cc(NC(=O)COc2ccc([N+](=O)[O-])cc2)cc(C(=O)OC)c1 | 9.2
43 | COc1ccc(NC(=O)c2c(-c3c(F)cccc3Cl)noc2C)c([N+](=O)[O-])c1 | -9.1
44 | CC(C)C(=O)Nc1cccc(-c2nc3ccccc3o2)c1 | -34.6
45 | COC(=O)c1ccc(C(=O)OC)c(NC(=O)Cc2ccccc2[N+](=O)[O-])c1 | 14.7
46 | O=S(=O)(c1cccs1)N1CCN(Cc2ccc3c(c2)OCO3)CC1 | 7.5

Row | Structure (SMILES) | displacement [%]
47 | Cc1ccnc(NS(=O)(=O)c2ccc(NC(=O)C3CC=CCC3C(=O)O)cc2)n1 (stereo unspecified) | 10.2
48 | CCOc1ccc(C2(C)C(=O)N(CN3CCOCC3)C(=O)N2CN2CCOCC2)cc1 (stereo unspecified) | 3
49 | Cc1ccc2c(c1)c(N=Nc1nnc3c(n1)[nH]c1ccccc13)c(O)n2C | 26.4
50 | Cc1ccc(Cn2c(NC(=O)c3ccccc3)nc3ccccc32)cc1 | -13.5
51 | C=C1c2ccccc2NC(=O)N1c1cccc(Cl)c1 | 13.6
52 | O=C(Nc1ccc2c(c1)OCCO2)c1ccncc1 | -2.6
53 | Cc1ccc(S(=O)(=O)/N=C(/Nc2cccc(O)c2)c2ccccc2)cc1 | 7.4
54 | Cc1ccc(C(C)C)c(OCC(=O)Nc2cccnc2)c1 | -7.7
55 | CCOc1ccc(-c2cc(C(=O)Nc3cc(OC)c(Cl)cc3OC)c3ccccc3n2)cc1 | 17.8
56 | Cc1ccc(NS(=O)(=O)c2ccc(C)c([N+](=O)[O-])c2)cc1 | 15.6
57 | COc1ccc(/C=C2\SC(=S)N(c3cccc(C)c3C)C2=O)cc1 | -3.5
58 | O=C(Nc1ccccc1Br)c1ccccc1[N+](=O)[O-] | -7.3
59 | COc1ccc(Cl)cc1C(=O)Nc1ccc(N(C)C)cc1 | 1.9
60 | COc1cc(OC)cc(C(=O)N2CCN(Cc3cc(OC)ccc3OC)CC2)c1 | 4.7
61 | CC(=O)C1=C(O)C(=O)N(CCN(C)C)C1c1ccccc1Cl (stereo unspecified) | -2.3
62 | CCn1c(-c2ccccc2C)n[nH]c1=S | -17.3
63 | Cc1ccc(C(=O)CC2(O)C(=O)Nc3ccccc32)cc1 (stereo unspecified) | -2.1
64 | CC1=[N+]([O-])C(C)(C)C(c2ccco2)=[N+]1[O-] | 14.4
65 | CC(=O)NC1=NC(=O)/C(=C\c2ccc(I)o2)S1 | 20.2
66 | COC(=O)/C(=N/O)c1c[nH]c2ccccc12 | 5.9
67 | NC1=NC(=O)/C(=C/c2cccc(Oc3ccccc3)c2)S1 | 11.1
68 | Cc1ccc(NC2=NC3(CCCCC3)N=C(N)N2)cc1 | -8.4
69 | CCOC(=O)c1c(-c2ccccc2)oc2ccc(OC(=O)c3ccc([N+](=O)[O-])cc3)cc12 | 12.2

Row | Structure (SMILES) | displacement [%]
70 | N/C(=N\OC(=O)c1ccccc1Cl)c1ccncc1 | -1.7
71 | NC1=NC(=O)CC(C(=O)Nc2ccc(Cl)cc2)S1 (stereo unspecified) | 2.1
72 | CCOc1ccccc1NC(=O)C1CN(S(=O)(=O)c2ccccc2)CCN1S(=O)(=O)c1ccccc1 (stereo unspecified) | 11.2
73 | O=C1/C(=C/c2ccc(Br)o2)SC(=S)N1c1ccc([N+](=O)[O-])cc1 | -3
74 | CCn1c2ccccc2c2cc(CN3CCN(C(=O)CC(C)C)CC3)ccc21 | -4.4
75 | COc1cc(/C=C2\SC(=S)N(Nc3ccccc3)C2=O)cc(OC)c1OC | 7.1
76 | C(=N\n1cnnc1)/c1cn[nH]c1-c1ccccc1 | -0.9
77 | O=C(NCc1ccccc1Cl)/C(=C\c1cccc(Br)c1)NC(=O)c1ccccc1 | 4
78 | Cc1ccc(NC(=O)c2cc(I)ccc2Cl)c([N+](=O)[O-])c1 | 8.7
79 | COC(=O)CN1C(=O)/C(=C\c2cccc(O)c2)SC1=S | 0
80 | CC1(C)CC(Cc2ccccc2)(C(=O)O)CCO1 (stereo unspecified) | -0.4
81 | CCS(=O)(=O)c1nnnn1-c1ccccc1 | 9.4
82 | COc1ccc(C(=O)NCc2ccccc2)cc1Br | -8.5
83 | Cc1cc(C(=O)Nc2cccc3ccccc23)co1 | 18.6
84 | COC(=O)c1cc(C(=O)N2CCCC2)cc([N+](=O)[O-])c1 | 12.7
85 | O=C1c2ccc(-c3nc4ccccc4c(=O)o3)cc2C(=O)N1c1c[nH]c(=O)[nH]c1=O | 5.5
86 | CC(C)(C)NCCCCOc1cccc(Cl)c1 | 4.2
87 | Cc1nc2cc(Cl)ccc2n1CCO | -6.6
88 | CCOC(=O)c1c(C)nc2ccccn12 | -2.1
89 | CCCN1C(=O)/C(=C2\SC(N)=NC2=O)c2ccccc21 | 8.8
90 | Cc1nc(Nc2nc3ccccc3o2)nc(C)c1C | 1.8
91 | CCOc1ccccc1NC1=CC(=O)CC(c2ccccc2)C1 (stereo unspecified) | -8.1
92 | O=C1/C(=C\c2cccs2)SC(=S)N1CCC(=O)N1CCCc2ccccc21 | 7.1

Row | Structure (SMILES) | displacement [%]
93 | COc1ccccc1OCCSc1nc2ccc(Br)cc2[nH]1 | -3.5
94 | CCOc1ccc(N(CC(=O)Nc2ccc(C)c(C)c2)S(=O)(=O)c2ccc(SC)cc2)cc1 | 7.2
95 | Cc1nc2cc(N=Cc3ccccc3O)ccc2n1C | 12.7
96 | CC/C(C)=N/NC(=O)c1[nH]c2ccc(C)cc2c1-c1ccccc1 | -14.6
97 | CCOC(=O)c1ccc(NC(=O)c2cc(Cl)ccc2Cl)cc1 | 10.8
98 | COc1ccc(NC(=O)C(=O)NCc2ccncc2)cc1Cl | 12.6
99 | Cc1cc(OCC(O)CN2C(C)CCCC2C)ccc1C(C)C (stereo unspecified) | 2.4
100 | Cc1ccccc1OCC(=O)Nc1cccc(F)c1 | 10.9
101 | O=C(NCc1ccc(F)cc1)c1ccc(Br)cc1 | 6
102 | O=C(CCCOc1ccccc1)Nc1ccc([N+](=O)[O-])cc1 | -8.3
103 | CC(C)(C)c1ccc(S(=O)(=O)Nc2ccc(O)c(Cl)c2)cc1 | 12.2
104 | O=C1NC(=O)N(c2ccccc2)C(=O)/C1=C\c1ccc(-c2ccc([N+](=O)[O-])cc2Br)o1 | -14.8
105 | COc1ccc(CCNC(=O)C(=O)Nc2ccc(OC)cc2)cc1 | -111
106 | CC(C)(C)c1ccc(OCC(=O)Nc2cccc([N+](=O)[O-])c2)cc1 | -0.9
107 | Cc1cccc(OCC(=O)N2CCN(c3ccc([N+](=O)[O-])cc3)CC2)c1 | 2.5
108 | COc1ccc(C2Nc3ccccc3C(=O)N2Cc2ccccc2)cc1CSc1ccccn1 (stereo unspecified) | 11.6
109 | Cc1ccc(N=Cc2c(C)nn(-c3ccccc3)c2Sc2ccc(C)cc2)cc1 | 8.4
110 | CCOc1ccc(N(CC(=O)Nc2ccc(OC)cc2OC)S(=O)(=O)c2ccccc2)cc1 | 1.7
111 | O=C(Nc1ccccc1C(=O)NCCCn1ccnc1)c1ccccc1 | 83.5
